In paper PMC6919601, “Identification of Plasmodium dipeptidyl aminopeptidase allosteric inhibitors by high throughput screening” (PLoS ONE, 2019):
Values joined by “and” are separate entries in the source; they are usually repeats but may differ in a detail not shown here. Identical values can stand only once. Out of some 110,000 compounds screened, about 230 (0.21%) showed an effect of 50% or more. This is one part of the list.

target: DPAP1 (Plasmodium falciparum, UniProt Q8IIJ9); test: primary screen, percent inhibition; read by cleavage of a fluorogenic dipeptide substrate; higher = more effect of the substance; set-up: species or system P. falciparum D10 trophozoite lysates; single well
Sequence (Q8IIJ9 whole entry, looked up): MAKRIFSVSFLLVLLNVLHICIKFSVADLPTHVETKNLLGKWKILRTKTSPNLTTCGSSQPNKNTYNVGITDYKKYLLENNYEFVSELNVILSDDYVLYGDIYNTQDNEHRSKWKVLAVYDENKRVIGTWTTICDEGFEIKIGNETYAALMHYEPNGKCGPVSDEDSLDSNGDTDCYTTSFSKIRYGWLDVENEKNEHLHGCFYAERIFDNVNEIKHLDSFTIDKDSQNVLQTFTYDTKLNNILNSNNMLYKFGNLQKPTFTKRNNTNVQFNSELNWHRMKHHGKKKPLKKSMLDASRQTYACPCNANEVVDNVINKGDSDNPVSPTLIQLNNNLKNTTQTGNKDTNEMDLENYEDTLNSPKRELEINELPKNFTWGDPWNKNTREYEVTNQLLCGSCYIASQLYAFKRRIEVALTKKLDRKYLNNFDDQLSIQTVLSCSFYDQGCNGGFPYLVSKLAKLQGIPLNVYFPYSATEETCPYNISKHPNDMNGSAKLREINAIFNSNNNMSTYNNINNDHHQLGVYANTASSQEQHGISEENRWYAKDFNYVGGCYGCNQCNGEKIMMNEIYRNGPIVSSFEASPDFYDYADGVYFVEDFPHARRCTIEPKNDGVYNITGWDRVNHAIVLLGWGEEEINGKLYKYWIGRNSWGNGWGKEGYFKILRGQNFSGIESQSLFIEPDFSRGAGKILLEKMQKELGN
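Also: 30 min substrate incubation versus DMSO and 10 µM JCP410 controls.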

Row | SMILES | % Inhibition @ 10 uM
1 | CC(=O)c1sc(NC(=O)c2ccc(COc3ccc(Cl)cc3)o2)nc1C | 2.1%
2 | NC(=O)C1CCN(C(=O)COc2ccc(S(=O)(=O)NCc3ccccc3)cc2Cl)CC1 | 1.88%
3 | COc1ccc(C(=O)Nc2ccc(C(=O)N3CCCCC3)cc2)cc1OC | -2.77%
4 | CCOc1cc(C2C(C#N)=C(N)Oc3[nH]nc(C)c32)ccc1OCc1ccccc1F (centres unmarked) | -1.38%
5 | CC(=O)/N=c1\sc2c(n1C)-c1ccccc1CC2 | 2.73%
6 | Cn1cnc2c1c(=O)n(Cc1ccc(-c3nnc(N)s3)cc1)c(=O)n2C | 5.3%
7 | Cc1ccc(-c2cn3nc(N4CCC(C(=O)NCCc5cccs5)CC4)sc3n2)cc1 | -0.613%
8 | O=C(OCC1(COC(=O)c2cccs2)COC(c2ccccc2)=N1)c1cccs1 | 1.32%
9 | CC1(C)Cc2nc3nc(SCC(=O)c4ccc(Br)cc4)nc(N)c3cc2CO1 | 0.776%
10 | Cc1ccc(C(=O)O)cc1-c1ccc(/C=C2\SC(=O)N(CC(=O)N3CCOCC3)C2=O)o1 | 25.3%
11 | CC(C)(CNS(=O)(=O)c1ccc(F)cc1)CNS(=O)(=O)c1ccc(F)cc1 | 3.72%
12 | CCc1nnc(NS(=O)(=O)c2ccc(C)cc2)s1 | -0.902%
13 | CCC(C)NC(=O)C1CCN(c2ncnc3c2nc2n3CCCCC2)CC1 (centres unmarked) | 3.72%
14 | CC(C)CCOc1ccc(C(=O)CCNC(CC(=O)O)c2ccccc2)cc1 (centres unmarked) | 34.7%
15 | CCN(CC)CCNc1ncnc2c1sc1nc(N3CCOCC3)c3c(c12)CC(C)(C)OC3 | -2.09%
16 | COCCNC(=S)N(CCc1c(C)[nH]c2ccc(OC)cc12)Cc1cccnc1 | 0.813%
17 | COc1ccc(/C=C2\N=C(c3ccc(Br)cc3)OC2=O)cc1 | 0.775%
18 | CS(=O)(=O)N(CC(=O)Nc1ccc(Br)cc1)c1ccccc1F | 9.72%
19 | CCCC(=O)C1=C(Nc2ccccc2O)CC(C)(C)CC1=O | -1.08%
20 | COc1ccc(C(CC(=O)O)NC(=O)C(F)(F)F)cc1 (centres unmarked) | -8.77%
21 | Clc1ccc(CN2CCN(c3ccccn3)CC2)c(Cl)c1 | -4.5%
22 | O=C1CC(CC(=C2C(=O)CCCC2=O)N2CCCC2)CC(=O)N1 | -0.267%
23 | C=CCOc1ccc(C2c3c(-c4ccccc4O)n[nH]c3C(=O)N2Cc2ccncc2)cc1OCC (centres unmarked) | 3.27%
24 | Cc1ccc(CNC(=O)CCCN2C(=O)CCn3nc(C)cc32)cc1 | 2.35%
25 | Cc1ccc(F)cc1S(=O)(=O)N1CCC(Oc2ccc(-n3cnnn3)cc2)CC1 | 3.88%

Row | SMILES | % Inhibition @ 10 uM
26 | CCOc1ccc(C2C(C(=O)c3ccccc3)=C(O)C(=O)N2CCOC)cc1 (centres unmarked) | 1.37%
27 | CC(NC(=O)c1cnn2c(C(F)F)cc(C3CC3)nc12)c1ccncc1 (centres unmarked) | -4.15%
28 | O=S(=O)(c1ccccc1)N1N=C(c2ccc(Cl)cc2)CC1c1cccs1 (centres unmarked) | -5.1%
29 | CCN(CC)S(=O)(=O)c1nnc(NC(=O)c2ccccc2F)s1 | -5.37%
30 | Cc1cc(C(=O)CSc2ncnc3sc4c(c23)CCC4)c(C)n1Cc1ccco1 | 3.47%
31 | COC(=O)c1ccc(COc2ccc(C=O)cc2OC)o1 | -6.6%
32 | COc1cc(-c2nc3ccccn3c2/N=C/c2c[nH]nc2-c2ccccc2)ccc1O | 13.2%
33 | O=C(CC1Nc2ccccc2NC1=O)Nc1cccc(C(F)(F)F)c1 (centres unmarked) | -3.23% and 0.317%
34 | COc1ccc(N2C(=O)C(C)SC23C(=O)Nc2ccccc23)cc1 (centres unmarked) | 0.142%
35 | Cn1cccc1CN1CCN(C(=O)c2cccc(Cl)c2)CC1 | -8.76%
36 | CCOc1ccc(C=C2C(=O)NC(=O)NC2=O)c(O)c1 | 8.97%
37 | CC(C)C[C@H](NC(=O)OCc1ccccc1)C(=O)NC1COCC1=O (some centres unmarked) | 0.173%
38 | CCOC(=O)c1ccc(CN(Cc2ccccc2C)S(=O)(=O)c2ccc3c(c2)OCCO3)cc1 | -7.57%
39 | CCCCCCc1cc2cc(C(=O)O)c(=O)oc2cc1O | 4.08%
40 | CC(C)=CCC/C(C)=C/CN(CC(C)O)CC(C)O (centres unmarked) | -2.34%
41 | COc1ccc(Oc2coc3cc(OCc4ccccc4C)ccc3c2=O)cc1 | -4.84%
42 | CCOCCCNC(=O)/C(C#N)=C/c1c(Oc2ccccc2)nc2c(C)cccn2c1=O | -5.1%
43 | O=C(O)c1cnn(-c2ccccc2)c1-c1ccncc1 | 2.39%
44 | O=C(O)CCCNc1ccc(S(=O)(=O)N2CCCCC2)cc1 | 0.505%
45 | CC(=O)c1ccc(N2CCN(Cc3cccc(O)c3)CC2)cc1 | 2.22%
46 | CCc1ccc(S(=O)(=O)c2nnn3c2nc(N2CCC(C)CC2)c2ccccc23)cc1 | -4.85%
47 | CCOC(=O)c1c(C)oc(NC(C)=O)c1C#N | 1.72%
48 | COc1cccc(C(=O)Nc2c(-c3ccccc3)nc3cc(C)ccn23)c1OC | 0.813%
49 | Cc1ccc(S(=O)(=O)NC(C)(C)CSc2nc[nH]n2)cc1 | 0.758%
50 | COc1ccc(-c2cc(-c3ccc(C)cc3)nc(N3CCCC3)n2)cc1 | -1.5%

Row | SMILES | % Inhibition @ 10 uM
51 | COc1ccccc1CNC(=O)CCn1cnc2onc(-c3ccc(F)cc3)c2c1=O | -1.97%
52 | COc1ccc(S(=O)(=O)N(C(C)=O)c2ccc3oc4c(c3c2)CCCC4)cc1 | -15.4%
53 | COc1ccc(OC)c(S(=O)(=O)N2CC=C(c3c(C)[nH]c4ccccc34)CC2)c1 | 3.76%
54 | CCOC(=O)C1=C(CS(=O)(=O)c2ccccc2)NC(=O)NC1c1cccc(Cl)c1 (centres unmarked) | -2.16%
55 | COc1ccc(-c2csc(/C(C#N)=C/c3ccccc3[N+](=O)[O-])n2)cc1 | 6.11%
56 | COc1ccc(CCNC(=O)Cn2nnc(-c3ccc(OCc4ccccc4F)cc3)n2)cc1OC | -0.703%
57 | COc1cc(OC)cc(C(=O)n2nc(C)c(-c3ccccc3)c2N)c1 | -0.703%
58 | CCN(CC)S(=O)(=O)c1ccc(NC(=O)c2ccc(Br)o2)cc1 | -1.06%
59 | CSc1nc2c(ccc3ccccc32)o1 | -0.215%
60 | COC(=O)C1=C(C)N(C)C(=O)NC1c1cc(OC)ccc1OC (centres unmarked) | 3.15%
61 | Cc1c2cnn(CC(=O)NCCCN(C)C3CCCCC3)c(=O)c2c(C)n1Cc1ccccc1F | -0.447%
62 | N=C(NOC(=O)Cc1ccc(Cl)cc1)c1ccncc1 | 3.66%
63 | Cc1ccc(C2CC(=O)NC(SCC(=O)N3CCCC3)=C2C#N)cc1 (centres unmarked) | 0.983%
64 | O=C(CCC(=O)Nc1ccc2ccccc2c1)Nc1ccc2ccccc2c1 | -4.6%
65 | CCOc1ccc(C(CC(=O)O)NC(C)=O)cc1 (centres unmarked) | 1.62%
66 | CCn1cc(CCC(=O)NCCN2CCOCC2)c2ccccc21 | 3.28%
67 | Cc1cc(C)c2c3c(sc2n1)C1(CCCCC1)C(C#N)=C(N)O3 | 13.7%
68 | CNc1oc(/C=C/c2ccc(OC)c(OC)c2)nc1C#N | 0.895%
69 | COc1ccc(CN2CC(C(=O)NCC3CCCO3)CC2=O)cc1 (centres unmarked) | -1.21%
70 | COc1ccc(C(=O)c2sc3nc4c(c(-c5cccs5)c3c2N)CN(C)CC4)cc1 | -3.46%
71 | COC(=O)c1cn(CC(=O)N2CCOCC2)c2ccccc12 | 1.62%
72 | O=C(NCc1cccc2ccccc12)C12CC3CC(CC(C3)C1)C2 | 3.39%
73 | Cc1cc(C)c(C)c(S(=O)(=O)N2CC(C)OC(C)C2)c1C (centres unmarked) | -4.4%
74 | Cc1c(C(=O)NCc2cccnc2)oc2ccc3c(c12)C(=O)CC1(CCC(C)CC1)O3 (centres unmarked) | -1.08%
75 | CN1C(=O)/C(=C/c2cc3c(cc2Cl)OCO3)S/C1=N/c1ccc(C(=O)O)cc1 | 4.3%

Row | SMILES | % Inhibition @ 10 uM
76 | CN1CCN(C(=O)CCc2nc(-c3ccc(Cl)cc3)no2)CC1 | -10.9%
77 | COc1ccc(CN2CCSCC2)c(OC)c1 | -3.71%
78 | CC1=C(c2ccc(C)c(C)c2)S(=O)(=O)N=C1NC1CCCCCC1 | -4.68%
79 | CCOC(=O)c1ccc2nc(C(F)(F)F)nc(NCCCN3CCOCC3)c2c1 | -2.91%
80 | Cc1ccsc1CCNC(=O)C1CCC(C/N=c2/c(N3CCOCC3)c(O)c2=O)CC1 (centres unmarked) | 5.91%
81 | Clc1ccc(Cl)c(OCCCN2CCCCC2)c1 | -4.8%
82 | C=CCn1c(SCC(=O)NC2CCCCC2)nnc1-c1ccc(OC)cc1 | -11.4%
83 | CCSC1=N/C(=C\c2ccc(C(C)C)cc2)C(=O)S1 | 1.91%
84 | Oc1ccc(Cl)cc1C(C#Cc1ccccc1)N1CCOCC1 (centres unmarked) | -3.77%
85 | O=C(Nc1sc2c(c1C(=O)NC1CCCCC1)CCCC2)c1ccccc1 | 1.39%
86 | Cc1ccc(Cn2nnc3c(=O)n(CC(=O)NCc4ccco4)cnc32)cc1 | 2.65%
87 | COc1ccc(Cn2c(SCC(=O)N3CCCC3)nc3c(sc4cccc(F)c43)c2=O)cc1 | 5.74%
88 | CCc1nc2ccccc2c(NC(=O)CN2CCN(C(=O)c3ccco3)CC2)c1C | 0.266%
89 | COc1cccc(CC2=NOC(C(=O)O)C2)c1 (centres unmarked) | -4.11%
90 | Cc1ccc(NC(=O)C(C)N2C(=O)c3ccccc3C2=O)cc1C (centres unmarked) | -2.73%
91 | CN1C(=O)C(=Cc2ccc(N3CCCCC3)o2)C(=O)N(C)C1=O | -6.6%
92 | Cc1cccc(-n2c(C)cc(/C=C3\C(=N)N4N=C(S(C)(=O)=O)SC4=NC3=O)c2C)c1 | 52.6%
93 | O=C(Nc1ccc2ccccc2c1)c1cccc(Cl)c1 | -1.48%
94 | CCN(CC)CC(O)CN1c2ccccc2Sc2ccccc21 (centres unmarked) | 3.53%
95 | CCc1ccc(NS(=O)(=O)c2ccc(F)cc2)cc1 | -1.45%
96 | O=C(O)CCC(=O)N1CCN(C(=O)c2ccco2)CC1 | 4.73%
97 | Cc1cccc(-c2nc(CS(=O)CC(=O)NCCN(Cc3ccccc3)C(C)C)c(C)o2)c1 (centres unmarked) | -3.08%
98 | COc1ccc(C2SCCN2S(=O)(=O)c2ccc(C)c(C)c2)cc1 (centres unmarked) | 3.35%
